Laboratory results: PubChem BioAssay AID296 (DTP/NCI, 2004)
Inconclusive results are not listed. For part of its entries the source gives two or more results. This list holds those alone. An entry can have further records. Results that share an entry are repeats across runs, samples, wells, individuals or studies.

Tested on: MX-1 breast xenograft, nude mice, tumor weight T/C
Test: NCI In Vivo Anticancer Drug Screen. Data for tumor model Human Mammary Carcinoma MX-1 Xenograft (intrarenal inoculation) in NU/NU Swiss (nude) mice
Settings: endpoint: mean tumor weight change, higher = larger tumour
Description: The antitumor activity of compounds was measured in mice bearing transplantable tumors. Survival or tumor size were measured and the results are expressed as the measurement made in the treated group (T) divided by the measurement made in the vehicle treated control group (C). The tumor model used in this assay is Human Mammary Carcinoma MX-1 Xenograft (intrarenal inoculation) in NU/NU Swiss (nude) mice

[1] = dose: 100.0 mg/kg/injection, schedule: Q04DX003 (sc), vehicle: Klucel (hydroxypropylcellulose) (HPC)
[2] = dose: 8.0 mg/kg/injection, schedule: Q01DX010 (sc), vehicle: saline with Tween-80

CCOC(=O)C(CC(C)C)NC(=O)C(N)Cc1ccc(N(CCCl)CCCl)cc1 (centres undefined)
T/C (dose: 15.0 mg/kg/injection, schedule: Q04DX003 (sc), vehicle: water): -100 % of control, 2 % of control, 7 % of control | T/C (dose: 30.0 mg/kg/injection, schedule: Q04DX003 (sc), vehicle: water): -100 % of control, -28 % of control, -6 % of control

CCOC(=O)c1ccc(NC(=O)Nc2nncs2)cc1
T/C (dose: 100.0 mg/kg/injection, schedule: Q01DX010 (sc), vehicle: distilled water + Tween-80): 63 % of control and 101 % of control | T/C (dose: 200.0 mg/kg/injection, schedule: Q01DX010 (sc), vehicle: distilled water + Tween-80): 42 % of control and 71 % of control | T/C (dose: 400.0 mg/kg/injection, schedule: Q01DX010 (sc), vehicle: distilled water + Tween-80): 20 % of control and 58 % of control

CN(C)c1ccc2c(NCCCCCCNc3ccnc4cc(N(C)C)ccc34)ccnc2c1
T/C (dose: 150.0 mg/kg/injection, schedule: Q04DX003 (sc), vehicle: distilled water + Tween-80 + alcohol): 36 % of control, 81 % of control, 94 % of control | T/C (dose: 300.0 mg/kg/injection, schedule: Q04DX003 (sc), vehicle: distilled water + Tween-80 + alcohol): 7 % of control, 34 % of control, 57 % of control

O=c1[nH]c(=O)c2nc(-c3cccnc3)cnc2[nH]1
T/C [1]: 8 % of control and 81 % of control | T/C (dose: 400.0 mg/kg/injection, schedule: Q04DX003 (sc), vehicle: Klucel (hydroxypropylcellulose) (HPC)): 21 % of control and 112 % of control | T/C (dose: 800.0 mg/kg/injection, schedule: Q04DX003 (sc), vehicle: Klucel (hydroxypropylcellulose) (HPC)): 65 % of control and 106 % of control

CC(C)[C@](O)(C(=O)OCC1=CC[N+]2([O-])CC[C@@H](O)[C@@H]12)[C@H](C)O (some centres undefined)
T/C (dose: 100.0 mg/kg/injection, schedule: Q01DX010 (sc), vehicle: water): 23 % of control, 40 % of control, 82 % of control | T/C (dose: 200.0 mg/kg/injection, schedule: Q01DX010 (sc), vehicle: water): 46 % of control, 65 % of control, 74 % of control | T/C (dose: 400.0 mg/kg/injection, schedule: Q01DX010 (sc), vehicle: water): 7 % of control, 30 % of control, 41 % of control | T/C (dose: 800.0 mg/kg/injection, schedule: Q01DX010 (sc), vehicle: water): -65 % of control, -51 % of control, 4 % of control

CN(C)N=Nc1cccc(C(N)=O)c1
T/C [1]: 18 % of control, 41 % of control, 45 % of control

OCCN1CCN(CC/C=C2/c3ccccc3Sc3ccc(Cl)cc32)CC1
T/C (dose: 100.0 mg/kg/injection, schedule: Q04DX003 (sc), vehicle: saline): 21 % of control and 58 % of control

Cc1c(CNc2ccc(C(=O)NC(CC(=O)O)C(=O)O)cc2)ccc2nc(N)nc(N)c12 (centres undefined)
T/C (dose: 12.0 mg/kg/injection, schedule: Q04DX003 (sc), vehicle: saline with Tween-80): 24 % of control and 54 % of control | T/C (dose: 24.0 mg/kg/injection, schedule: Q04DX003 (sc), vehicle: saline with Tween-80): 14 % of control, 34 % of control, 45 % of control

O=C(O)CCCc1ccc(N(CCCl)CCCl)cc1
T/C [2]: -90 % of control and 2 % of control

Nc1ccn([C@@H](C=O)O[C@@H](C=O)CO)c(=O)n1
T/C (dose: 50.0 mg/kg/injection, schedule: Q01DX010 (sc), vehicle: suspension in saline): 75 % of control and 173 % of control | T/C (dose: 100.0 mg/kg/injection, schedule: Q01DX010 (sc), vehicle: suspension in saline): 29 % of control, 46 % of control, 55 % of control | T/C (dose: 200.0 mg/kg/injection, schedule: Q01DX010 (sc), vehicle: suspension in saline): 1 % of control, 7 % of control, 109 % of control

COc1cc2cc(c1Cl)N(C)C(=O)CC(OC(=O)CC(C)C)C1(C)OC1C(C)C1CC(O)(NC(=O)O1)C(OC)/C=C/C=C(C)C2 (centres undefined)
T/C (dose: 50.0 micrograms/kg/injection, schedule: Q01DX010 (sc), vehicle: saline + alcohol): 15 % of control and 85 % of control

O=NN(CCCl)C(=O)NC1CCCCC1
T/C [2]: 50 % of control and 251 % of control | T/C (dose: 16.0 mg/kg/injection, schedule: Q04DX003 (sc), vehicle: Klucel (hydroxypropylcellulose) (HPC)): 19 % of control and 63 % of control | T/C (dose: 32.0 mg/kg/injection, schedule: Q01DX010 (sc), vehicle: saline with Tween-80): -8 % of control and 39 % of control | T/C (dose: 32.0 mg/kg/injection, schedule: Q04DX003 (sc), vehicle: Klucel (hydroxypropylcellulose) (HPC)): -34 % of control and 30 % of control | T/C (dose: 50.0 mg/kg/injection, schedule: Q04DX003 (sc), vehicle: Klucel (hydroxypropylcellulose) (HPC)): 26 % of control and 224 % of control | T/C [1]: -85 % of control and 124 % of control
